# Assay results reported in ChEMBL document CHEMBL4888484, “Replenishing the malaria drug discovery pipeline: Screening and hit evaluation of the MMV Hit Generation Library 1 (HGL1) against asexual blood stage Plasmodium falciparum ,using a nano luciferase reporter read-out” (2022).
# Out of some 150,000 compounds screened, about 540 (0.36%) showed an effect of 50% or more. The list shows a part of the results.
# Test system: Plasmodium falciparum
# Assay: Primary screen in NF54 nanoGlo assay, in single point, at 2uM, 72h; a lower Z score goes with more inhibition
# Type: functional, Erythrocyte
# Conditions: timepoint 72 hour
Structure (SMILES),% Inhibition [%],Z score
O=C(COC(c1ccccc1)c1ccccc1)N1CCC2(CC1)OCCO2,-8,1.38
CCn1nncc1CN(CCc1ccccc1)[C@H]1CCOC1,-14,1.47
CC[C@]1(CCC(C)C)C(=O)NC(=O)N(C(=O)c2cccc(Cl)c2)C1=O,-5,0.71
CCCn1nnnc1CN(C)CCc1ccccc1OC,11,-1.55
CN1C(=O)N(C)C(=O)C2(Cc3cc(C(F)(F)F)ccc3N3CCC(c4ccccc4)CC32)C1=O (stereo not given),2,-0.4
CC(=O)N[C@H]1C[C@H]2CN(Cc3ccc(C)cn3)CC(=O)N2C1,-15,1.34
CCCN(C)c1nccc(N2CCN[C@@H]3CS(=O)(=O)C[C@@H]32)n1,7,-1.3
N#Cc1ccccc1CN1Cc2ccccc2C1=N,-12,2.07
COc1cc(N2CCN(C)[C@@]3(CCNC(=O)CC3)C2)nc(OC)n1,-13,2.49
O=C(NCC1CCN(c2nc3ccccc3o2)CC1)Oc1ccccc1,-19,2.82
O=C(c1cc2ccccc2c(=O)[nH]1)N1CCC2(CC1)OCCO2,-16,1.82
NC(=O)[C@@H](c1ccc(F)cc1)n1nc(-c2cccs2)oc1=O,-5,0.99
COCc1nn(Cc2csc3c(Cl)cccc23)c(=O)o1,2,-0.19
CC1CCN([C@@H](C)Cn2c(=O)[nH]c3ccccc3c2=O)CC1,-2,0.39
COc1ccc(-n2cnc3cc(C(=O)N4CCC5(CC4)OCCO5)ccc32)cc1,-16,2.58
Cc1[nH]c2ccccc2c1C1CCN(Cc2cn[nH]c2)CC1,8,-0.96
CCCn1ccnc1CN(C)[C@@H](C)Cc1ncccc1C,-7,1.36
COc1ccc([C@H]2C[C@H]3CC[C@@H](C2)N3Cc2[nH]cnc2C)cc1,-7,1.42
C1=C(c2cnc3ccccc3c2)CCNC1,-8,0.98
O=C1CNC[C@H]2c3cccc(Cl)c3CCN12,3,-0.42
O=C(c1ccc(Cl)cc1)[C@H]1CCCN(Cc2ccc3nsnc3c2)C1,10,-1.53
COc1ccccc1NC(=O)N1Cc2c(C)cc(C)nc2-n2cccc2[C@H]1c1ccc(F)cc1,0,-0.04

Structure (SMILES),% Inhibition [%],Z score
CCn1cc(C(=O)NCc2ccc(C)o2)c2cccnc21,-13,1.32
C[C@@H](C(=O)Nc1cncc(F)c1)N1CCOCC1,-12,1.55
O=C(Cc1cccc2ccccc12)N1CCCN([C@H]2CCOC2)CC1,-15,2.52
COc1cccc(CCNCc2cccc3cn[nH]c23)c1O,1,-0.21
CN1C(=O)c2ccccc2Oc2ccc(C(=O)N3CCC4(CC3)OCCO4)cc21,11,-1.62
CC1CN(Cc2ccc(Cl)s2)CC2(CCOC2)O1 (stereo not given),-16,1.39
Cc1cc(C(=O)N2CC[C@H]3CC[C@@H](C2)N3)cc(=O)[nH]1,3,-0.43
Cc1cc(C(=O)N2CCC(c3n[nH]c(=O)o3)CC2)cc(O)n1,-8,0.88
Cc1nccc(NS(=O)(=O)c2ccc(S(=O)(=O)F)cc2)n1,-12,1.9
CN(c1ncnc2[nH]ccc12)C1CCN(CCC(F)(F)F)CC1,3,-0.61
Cc1cccc([C@H](Cn2ccnc2-c2ccco2)N(C)C)c1,-9,1.11
CN1C2CCC1CC(Oc1nc(C3CC3)ns1)C2 (stereo not given),-15,1.98
CCOc1cccc2c1cc(C(=O)NCc1ccccn1)n2Cc1ccccc1C,-1,0.14
COc1ccccc1NC(=O)c1ccc2oc(=O)n(Cc3ccccc3)c2c1,-2,0.22
O=C(Oc1cccc(-c2nnco2)c1)N1CCCCC1,5,-0.89
Cc1ccoc1CN1CCCC2(C1)OCCO2,-12,2.21
COc1ccc2c(c1)C1CCCNC1CO2 (stereo not given),-11,1.44
CC(C)NC(=O)c1cn(CC2CCCCC2)cc(C(=O)N2CCc3ccccc3C2)c1=O,-3,0.47
Cc1ccsc1C(C)NCC1CN2CCN1CC2 (stereo not given),0,0
CN(C)[C@H]1CN(C(=O)Cc2ccc(CO)cc2)C[C@@H]1C1CC1,-1,0.19
Fc1ccc(C[C@H]2CCOC3(CCNCC3)C2)cc1,-12,1.3
CN(CC(=O)N1CCC2(CC1)OCCO2)c1ccc(F)cc1,30,-3.38

Structure (SMILES),% Inhibition [%],Z score
CCOC(Cn1cc(C(=O)NC2CCC(C)CC2)nn1)OCC (stereo not given),-5,0.79
COc1ccccc1-c1cc([C@H]2CN3CC[C@H]2C[C@@H]3CN)n(C)n1,29,-3.28
CC(C)n1cc(-c2c(-c3ccccc3)ncn2[C@H]2CN3CCC2CC3)cn1,0,-0.03
O=C(C1CCOCC1)N1[C@H]2CC[C@@H]1c1cnc(-c3ccc(F)cc3)nc1C2,-23,3.27
NC(=O)c1cnc(N2CCC[C@H]2c2cccnc2)c(Cl)c1,-4,0.53
CCCCc1cn(C[C@H]2C[C@@H]3CCN2C[C@@H]3C(=O)Nc2ccccc2)nn1,25,-2.83
Cc1nn(C)cc1CNC(=O)c1c(CC2CCCC2)n(Cc2cccnc2)c(C)cc1=O,-11,1.34
Cc1cc(C)c(CNc2cc(-c3cccnc3)nc3ncnn23)c(=O)[nH]1,-4,0.5
C=CCCC(CN1C[C@H]2CC=CC[C@H]2C1)Oc1ccnc(C)n1 (stereo not given in full),3,-0.6
CN1CCN2CCN(c3ncc(C#N)c(N)n3)C[C@@H]2C1,-14,1.37
CN(C)[C@@H]1C[C@@H](CO)N(C(=O)Cc2ccc(F)cc2Cl)C1,-21,1.89
C=CCn1cc(CNCCc2ccc(CC)cc2)c(C)n1,9,-1.68
Cc1nc(-c2ccc(F)c(F)c2)c(N)c(N(C)C2CCN(C)CC2)n1,-13,1.83
CN1[C@@H]2CC[C@@H]1CC(OC(=O)[C@H](CO)c1ccccc1)C2 (stereo not given in full),-10,1.31
Cc1nc[nH]c1CN1C[C@H]2CC[C@@H](C1)N(C(=O)Cc1ccncc1)C2,-5,0.88
CCN1CCC2CCC(C1)N2Cc1cccs1 (stereo not given),-13,1.28
CN(C)c1ccc(C(=O)N2CCC3(CC2)c2nccn2-c2ccccc2CN3C)cc1,-16,2.12
Cc1cc(CC(C)NC2CCCc3ccc(O)cc32)n[nH]1 (stereo not given),-4,0.73
C[C@@H](Cc1cccs1)N(C)CCN1C(=O)CCC1=O,31,-3.49
Cc1ncc(CN(C)C(=O)C2C(C)(C)C2(C)C)s1,-15,2.6
COC1(CN2CCOC3CCCCC32)CCC1 (stereo not given),-12,1.66
CC(NCCCc1cnn(C)c1)C(c1ccccc1)N(C)C (stereo not given),-5,1.01

Structure (SMILES),% Inhibition [%],Z score
NC(=O)CCC(=O)N1C[C@H](c2cccc(F)c2F)[C@@H]2[C@H]1C1CCN2CC1,1,-0.14
Cc1nnc(CC(=O)N2C3CCC2c2ccccc23)o1,-2,0.32
CCCc1c(C(=O)Nc2ccc(O)cc2O)cnn1C1CCCC1,7,-0.88
CC1CC(C)CN(S(=O)(=O)c2ccc3c(c2)N(CC(=O)N2CCC4(CC2)OCCO4)C(=O)CO3)C1 (stereo not given),5,-0.79
CN(C)C(=O)CN1C[C@H]2CC[C@@H](C1)N(Cc1c(Cl)cncc1Cl)C2,-3,0.56
CCCS(=O)(=O)N1C[C@@H]2C[C@H](C1)c1c(-c3ccc(OC(F)(F)F)cc3)ccc(=O)n1C2,-3,0.42
CN1CCN(c2cc3c(cc2F)no[n+]3[O-])CC1,-12,1.35
COc1ccccc1C(N)=NOCC(=O)N1CCC2(CC1)OCCO2,1,-0.18
Cc1nc(CN2C[C@@H](CO)[C@H](c3ccc(Cl)cc3)C2)co1,4,-0.83
CCc1ccccc1S(=O)(=O)N1[C@@H]2CC[C@H]1Cc1nc(C)[nH]c(=O)c1C2,-8,1.26
O=C(Oc1ccccc1)N(c1ccc2oc(=O)sc2c1)S(=O)(=O)c1cccc2cccnc12,-47,6.29
Cc1cccn2cc(CN3C[C@@H]4[C@@H]5CC[C@@H](C5)[C@@H]4C3)nc12,-10,1.86
c1ccc([C@@H]2CN(Cc3nccs3)[C@@H]3C4CCN(CC4)[C@@H]32)cc1,-16,2.42
O=C(C1CCC1)N1[C@H]2CC[C@@H]1c1cnc(-c3ccccc3)nc1C2,-7,0.95
O=C(Cc1noc2ccccc12)N1CC2CCCC(C1)N2,37,-1.56
Cc1ccccc1C[C@H](C)NCCCn1ccnc1,-5,0.42
O=C(c1cnccn1)N1C[C@@H]2C[C@H](C1)c1c(-c3ccccc3)ccc(=O)n1C2,-13,2.48
c1ccc(CN2CCNC[C@H]2C2CCC2)cc1,-13,2.52
C[C@@H](Cn1cncn1)NCc1noc(-c2ccco2)n1,-18,2.18
